Assay results: the supplement of paper PMC11741623
This is one part of the list. Interaction screen of human proteins with wild-type SARS-CoV-2 proteins by split-DHFR complementation in yeast, 1 µg/mL methotrexate. Value = fitness of the pair (three or more lineages) minus that of the viral protein without a human partner, on a scale set by negative (0) and fused positive (1) controls, mean of up to three cultures; higher = more likely to interact. Active = false discovery rate below 0.05 (one-sided t-test) in at least one culture. Nearly all pairs are not hits, and differences among them are mostly noise (correlation between cultures about 0.3); most hits were seen in one culture only. Human sequences are the Swiss-Prot entries looked up by gene name; the clone may be another isoform. NSP2 values were corrected by the authors for a growth advantage. Listed are human proteins with a hit and a random twelfth of the others.

B1: SNX6, Q9UNH7 (protein)
chain: MMEGLDDGPDFLSEEDRGLKAINVDLQSDAALQVDISDALSERDKVKFTVHTKSSLPNFKQNEFSVVRQHEEFIWLHDSFVENEDYAGYIIPPAPPRPDFDASREKLQKLGEGEGSMTKEEFTKMKQELEAEYLAIFKKTVAMHEVFLCRVAAHPILRRDLNFHVFLEYNQDLSVRGKNKKEKLEDFFKNMVKSADGVIVSGVKDVDDFFEHERTFLLEYHNRVKDASAKSDRMTRSHKSAADDYNRIGSSLYALGTQDSTDICKFFLKVSELFDKTRKIEARVSADEDLKLSDLLKYYLRESQAAKDLLYRRSRSLVDYENANKALDKARAKNKDVLQAETSQQLCCQKFEKISESAKQELIDFKTRRVAAFRKNLVELAELELKHAKGNLQLLQNCLAVLNGDT
B2: ASTN2, O75129 (protein)
chain: MAAAGARLSPGPGSGLRGRPRLCFHPGPPPLLPLLLLFLLLLPPPPLLAGATAAASREPDSPCRLKTVTVSTLPALRESDIGWSGARAGAGAGTGAGAAAAAASPGSPGSAGTAAESRLLLFVRNELPGRIAVQDDLDNTELPFFTLEMSGTAADISLVHWRQQWLENGTLYFHVSMSSSGQLAQATAPTLQEPSEIVEEQMHILHISVMGGLIALLLLLLVFTVALYAQRRWQKRRRIPQKSASTEATHEIHYIPSVLLGPQARESFRSSRLQTHNSVIGVPIRETPILDDYDCEEDEEPPRRANHVSREDEFGSQVTHTLDSLGHPGEEKVDFEKKAAAEATQETVESLMQKFKESFRANTPIEIGQLQPPLRSTSAGKRKRRSKSRGGISFGRAKGTSGSEADDETQLTFYTEQYRSRRRSKGLLKSPVNKTALTLIAVSSCILAMVCGSQMSCPLTVKVTLHVPEHFIADGSSFVVSEGSYLDISDWLNPAKLSLYYQINATSPWVRDLCGQRTTDACEQLCDPETGECSCHEGYAPDPVHRHLCVRSDWGQSEGPWPYTTLERGYDLVTGEQAPEKILRSTFSLGQGLWLPVSKSFVVPPVELSINPLASCKTDVLVTEDPADVREEAMLSTYFETINDLLSSFGPVRDCSRNNGGCTRNFKCVSDRQVDSSGCVCPEELKPMKDGSGCYDHSKGIDCSDGFNGGCEQLCLQQTLPLPYDATSSTIFMFCGCVEEYKLAPDGKSCLMLSDVCEGPKCLKPDSKFNDTLFGEMLHGYNNRTQHVNQGQVFQMTFRENNFIKDFPQLADGLLVIPLPVEEQCRGVLSEPLPDLQLLTGDIRYDEAMGYPMVQQWRVRSNLYRVKLSTITLAAGFTNVLKILTKESSREELLSFIQHYGSHYIAEALYGSELTCIIHFPSKKVQQQLWLQYQKETTELGSKKELKSMPFITYLSGLLTAQMLSDDQLISGVEIRCEEKGRCPSTCHLCRRPGKEQLSPTPVLLEINRVVPLYTLIQDNGTKEAFKSALMSSYWCSGKGDVIDDWCRCDLSAFDANGLPNCSPLLQPVLRLSPTVEPSSTVVSLEWVDVQPAIGTKVSDYILQHKKVDEYTDTDLYTGEFLSFADDLLSGLGTSCVAAGRSHGEVPEVSIYSVIFKCLEPDGLYKFTLYAVDTRGRHSELSTVTLRTACPLVDDNKAEEIADKIYNLYNGYTSGKEQQMAYNTLMEVSASMLFRVQHHYNSHYEKFGDFVWRSEDELGPRKAHLILRRLERVSSHCSSLLRSAYIQSRVETVPYLFCRSEEVRPAGMVWYSILKDTKITCEEKMVSMARNTYGESKGR
B3: CCND3, P30281 (protein)
chain: MELLCCEGTRHAPRAGPDPRLLGDQRVLQSLLRLEERYVPRASYFQCVQREIKPHMRKMLAYWMLEVCEEQRCEEEVFPLAMNYLDRYLSCVPTRKAQLQLLGAVCMLLASKLRETTPLTIEKLCIYTDHAVSPRQLRDWEVLVLGKLKWDLAAVIAHDFLAFILHRLSLPRDRQALVKKHAQTFLALCATDYTFAMYPPSMIATGSIGAAVQGLGACSMSGDELTELLAGITGTEVDCLRACQEQIEAALRESLREASQTSSSPAPKAPRGSSSQGPSQTSTPTDVTAIHL
B4: DDX19B, Q9UMR2 (protein)
chain: MATDSWALAVDEQEAAAESLSNLHLKEEKIKPDTNGAVVKTNANAEKTDEEEKEDRAAQSLLNKLIRSNLVDNTNQVEVLQRDPNSPLYSVKSFEELRLKPQLLQGVYAMGFNRPSKIQENALPLMLAEPPQNLIAQSQSGTGKTAAFVLAMLSQVEPANKYPQCLCLSPTYELALQTGKVIEQMGKFYPELKLAYAVRGNKLERGQKISEQIVIGTPGTVLDWCSKLKFIDPKKIKVFVLDEADVMIATQGHQDQSIRIQRMLPRNCQMLLFSATFEDSVWKFAQKVVPDPNVIKLKREEETLDTIKQYYVLCSSRDEKFQALCNLYGAITIAQAMIFCHTRKTASWLAAELSKEGHQVALLSGEMMVEQRAAVIERFREGKEKVLVTTNVCARGIDVEQVSVVINFDLPVDKDGNPDNETYLHRIGRTGRFGKRGLAVNMVDSKHSMNILNRIQEHFNKKIERLDTDDLDEIEKIAN

Target: SARS-CoV-2 E
Test: yeast fitness gain over the viral ORF with no human partner (scaled fitness); higher = more likely to interact
Method: (§1)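 Split mouse DHFR complementation in pooled diploid yeast: human ORFeome clones carry one fragment and viral ORFs the other; barcoded lineages compete in 1 µg/mL methotrexate and fitness is read by barcode sequencing in up to three cultures.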

Binder | yeast fitness gain
B1 | inactive: 0.0312
B2 | inactive: 0.018
B3 | inactive: -0.0485
B4 | inactive: 0.0499

Target: SARS-CoV-2 M
Test: as above
Method: as §1

Binder | yeast fitness gain
B1 | inactive: 0.0763
B2 | inactive: -0.137
B3 | inactive: 0.034
B4 | inactive: -0.00982

Target: SARS-CoV-2 N
Test: as above
Method: as §1

Binder | yeast fitness gain
B1 | inactive: 0.0339
B3 | inactive: 0.0727
B4 | inactive: 0.0475

Target: SARS-CoV-2 NSP10
Test: as above
Method: as §1

Binder | yeast fitness gain
B1 | inactive: -0.0143
B2 | inactive: 0.0229
B3 | inactive: 0.0715

Target: SARS-CoV-2 NSP12
Test: as above
Method: as §1

Binder | yeast fitness gain
B1 | inactive: 0.0247
B2 | inactive: 0.014
B3 | inactive: 0.044

Target: SARS-CoV-2 NSP13
Test: as above
Method: as §1

Binder | yeast fitness gain
B1 | inactive: 0.0597
B2 | inactive: -0.009
B3 | inactive: 0.0392

Target: SARS-CoV-2 NSP14
Test: as above
Method: as §1

Binder | yeast fitness gain
B1 | inactive: -0.263
B3 | inactive: 0.114

Target: SARS-CoV-2 NSP16
Test: as above
Method: as §1

Binder | yeast fitness gain
B1 | inactive: -0.225
B2 | inactive: -0.0563
B3 | inactive: -0.01
B4 | inactive: -0.0803

Target: SARS-CoV-2 NSP2
Test: as above
Method: as §1

Binder | yeast fitness gain
B1 | inactive: -0.0257
B2 | inactive: -0.14
B3 | inactive: -0.0891

Target: SARS-CoV-2 NSP4
Test: as above
Method: as §1

Binder | yeast fitness gain
B1 | inactive: -0.0972
B2 | inactive: -0.0279
B3 | inactive: 0.133
B4 | inactive: 0.08

Target: SARS-CoV-2 NSP5
Test: as above
Method: as §1

Binder | yeast fitness gain
B1 | inactive: -0.00695
B2 | inactive: -0.0752
B3 | inactive: 0.0058

Target: SARS-CoV-2 NSP6
Test: as above
Method: as §1

Binder | yeast fitness gain
B1 | inactive: 0.102
B2 | inactive: -0.0171
B3 | inactive: 0.0618
B4 | inactive: -0.000656

Target: SARS-CoV-2 NSP7
Test: as above
Method: as §1

Binder | yeast fitness gain
B1 | inactive: -0.225
B2 | inactive: -0.0436
B3 | inactive: -0.0117

Target: SARS-CoV-2 NSP8
Test: as above
Method: as §1

Binder | yeast fitness gain
B1 | inactive: -0.0306
B2 | inactive: -0.0316
B3 | inactive: -0.034

Target: SARS-CoV-2 NSP9
Test: as above
Method: as §1

Binder | yeast fitness gain
B1 | inactive: -0.208
B2 | inactive: -0.131
B3 | inactive: 0.0424
B4 | inactive: 0.0132

Target: SARS-CoV-2 ORF10
Test: as above
Method: as §1

Binder | yeast fitness gain
B1 | inactive: 0.0673
B2 | inactive: 0.0352
B3 | inactive: 0.0282

Target: SARS-CoV-2 ORF3B
Test: as above
Method: as §1

Binder | yeast fitness gain
B1 | inactive: -0.00534
B2 | inactive: -0.0724
B3 | inactive: 0.0266
B4 | inactive: 0.0393

Target: SARS-CoV-2 ORF6
Test: as above
Method: as §1

Binder | yeast fitness gain
B1 | inactive: 0.0195
B2 | inactive: -0.0133
B3 | inactive: 0.0375

Target: SARS-CoV-2 ORF7A
Test: as above
Method: as §1

Binder | yeast fitness gain
B1 | inactive: -0.0104
B2 | inactive: 0.0454
B3 | inactive: -0.00315

Target: SARS-CoV-2 ORF7B
Test: as above
Method: as §1

Binder | yeast fitness gain
B1 | inactive: -0.0118
B2 | inactive: -0.0367
B3 | inactive: 0.00886
B4 | inactive: -0.0925

Target: SARS-CoV-2 ORF8
Test: as above
Method: as §1

Binder | yeast fitness gain
B1 | inactive: 0.0172
B2 | inactive: -0.0138
B3 | inactive: 0.0149

Target: SARS-CoV-2 ORF9B
Test: as above
Method: as §1

Binder | yeast fitness gain
B1 | inactive: 0.0837
B2 | inactive: -0.00159
B3 | inactive: 0.019

Target: SARS-CoV-2 ORF9Bwu (the 73-codon ORF)
Test: as above
Method: as §1

Binder | yeast fitness gain
B1 | inactive: 0.036
B2 | inactive: -0.131
B3 | inactive: 0.0629
B4 | inactive: -0.0516

Target: SARS-CoV-2 S
Test: as above
Method: as §1

Binder | yeast fitness gain
B1 | inactive: -0.0464
B2 | inactive: -0.00946
B3 | inactive: -0.0335
B4 | inactive: -0.0673

Target: SARS-CoV-2 NSP1
Test: as above
Method: as §1

Binder | yeast fitness gain
B2 | inactive: 0.0209
B3 | inactive: -0.0253

Target: SARS-CoV-2 NSP15
Test: as above
Method: as §1

Binder | yeast fitness gain
B2 | inactive: -0.0104
B3 | inactive: -0.0511
B4 | inactive: -0.147

Target: SARS-CoV-2 ORF3A
Test: as above
Method: as §1

Binder | yeast fitness gain
B3 | inactive: 0.0737
B4 | inactive: 0.0713
